This is one part of the list. At the low end of the ranking, values are background and their order means little. Measured with an extract: partners may take part in the binding.
These sequences were tested against T1, HNF4alpha2 (COS-7 nuclear extract) (UniProt P41235) (assay: protein-binding microarray). Conditions: COS-7 nuclear extract on double-stranded Agilent 4x180k PBM; binding buffer, salt, pH and temperature not given; high values mean tight binding; double strand, one strand shown; sequences stand for … in …GCCTAGGGAGATTAGAGTATCGGTCGA.
T1 sequence: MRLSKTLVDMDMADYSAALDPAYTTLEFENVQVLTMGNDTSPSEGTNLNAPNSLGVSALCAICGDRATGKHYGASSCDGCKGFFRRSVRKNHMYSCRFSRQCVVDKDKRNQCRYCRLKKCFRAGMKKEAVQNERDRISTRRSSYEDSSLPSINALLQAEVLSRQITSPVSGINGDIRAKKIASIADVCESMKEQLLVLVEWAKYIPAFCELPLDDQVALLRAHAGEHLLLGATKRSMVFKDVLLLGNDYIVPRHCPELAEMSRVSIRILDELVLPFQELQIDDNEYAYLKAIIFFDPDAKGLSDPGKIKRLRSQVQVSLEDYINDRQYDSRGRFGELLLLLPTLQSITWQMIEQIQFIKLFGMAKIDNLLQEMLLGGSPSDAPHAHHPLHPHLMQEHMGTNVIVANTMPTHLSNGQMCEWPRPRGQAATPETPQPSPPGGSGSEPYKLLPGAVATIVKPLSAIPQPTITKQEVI
With AGTCCAGGGTAGGAGCCTCTGATTTGCTGA the binding signal (log2 normalized intensity) was -1.14. AGTCCAGGCAGGACATCAAAGAACAAGTAT gave a binding signal (log2 normalized intensity) of -1.19. TGACAAGCAAACACAAACTATGACCTTTGA was tested, and the binding signal (log2 normalized intensity) was 8.49. In the case of ATAAGGCCCGGCTGATGGGACCAAAGGTGA, the binding signal (log2 normalized intensity) is reported as 2.39. For GCATAGGGAGAATGATAAGATATATGACTC, the binding signal (log2 normalized intensity) was -0.707. Work on CAAAGGTCAACAAACGCCCCTTGGATGAAT yielded a binding signal (log2 normalized intensity) of 3.25. TGTACCTGGGGCAAACATCAATTTAGACCG showed a binding signal (log2 normalized intensity) of -0.61. With GAGCGCTTTGAGGCCTATGGCGAAAAAGGA the binding signal (log2 normalized intensity) was -0.829. With GTCCCCTGTGCTTTGGCCAAATAATAGCAT the binding signal (log2 normalized intensity) was 1.45. For GGCTCTCCCCACTTACTTCCTGATAACCTG, the binding signal (log2 normalized intensity) was 0.86. In the case of CTAACCTTCGTCCTTGCCCCTGGCTGGGCC, the binding signal (log2 normalized intensity) is reported as 0.692. CTTATCTAGATAAGTTGGTTTACTTATGTC gave a binding signal (log2 normalized intensity) of 0.989. Sequence TCAAAAACCCATGGGAAGCTTCACAAAGGG has a binding signal (log2 normalized intensity) of -1.19. CAGCTCTGGGCCCCTCGGCCGCTCCCTCCC showed a binding signal (log2 normalized intensity) of 1.73. AAGCTTCACAAAGGGCTGAGGTTAAAGTCC gave a binding signal (log2 normalized intensity) of 6.22. Sequence GCAAAAATGCAGGCAATGAATAGAACAAAT has a binding signal (log2 normalized intensity) of -1.02. Work on GTGATAACGACATTCTTTGGATATGAAGGT yielded a binding signal (log2 normalized intensity) of 1.19. Sequence TGCTTAGCGGCCTTCCCCTTTTTCTGTAAA has a binding signal (log2 normalized intensity) of 1.56. In the case of TTCAACTGGAGGATAAAGTTCAAGTAGATA, the binding signal (log2 normalized intensity) is reported as 1.92. In the case of AGGCCTAACTGGCTTTGTCTGCTCAGGAAT, the binding signal (log2 normalized intensity) is reported as -1.13. GACACACATGAGCTAGTGCTAAAGGTCATA was tested, and the binding signal (log2 normalized intensity) was 5.47. In the case of TAACCACATTCTTTCTGCATCGCAGTCGCC, the binding signal (log2 normalized intensity) is reported as -0.939. AGGCCATCTGCTGGAGAATCCTCTCTTGCT showed a binding signal (log2 normalized intensity) of -1.05. AAAGAGCAACTACTCTCTCTTCTGGAGGAG gave a binding signal (log2 normalized intensity) of -1.07. TGGGTTGGAACCCCGTTTCTCCTACCTCAT gave a binding signal (log2 normalized intensity) of -1.08. ATCTGACAGAGATAAGGAAGTTCCAACATC showed a binding signal (log2 normalized intensity) of -1.17. Work on ATGAGCAAGGTGGGTTCAGAGACCCTAGAG yielded a binding signal (log2 normalized intensity) of -1.21. Sequence CTACAGGGTATGAATTTAACCTTTGCTCTC has a binding signal (log2 normalized intensity) of 6.87. Sequence CTGCCTCCAGCTGTTGGTGACTGACCCTGA has a binding signal (log2 normalized intensity) of 3.16. GAGGCAGGATGACTGCTTGAGTCCAGGAGT showed a binding signal (log2 normalized intensity) of -1.08. Sequence GGGTGACCAGTGGACCATGAGAAACATCCA has a binding signal (log2 normalized intensity) of -1.16. ACTGAAAGCTATCCCTCCATATTGCAGACA was tested, and the binding signal (log2 normalized intensity) was -0.965. TTCAGCTTATAAATCTTCAACTGGAGGATA was tested, and the binding signal (log2 normalized intensity) was 1.01. In the case of ATTTTGGGGCTGTATTTACATGGATTAGTC, the binding signal (log2 normalized intensity) is reported as 1.08. With ACATGTCATTGGCAGAAGGTGGAACAGTCA the binding signal (log2 normalized intensity) was 1.07. With TGGTACTGGACATGGTCTAAGAAAAGCAGG the binding signal (log2 normalized intensity) was -0.541. AGGAACAGGCCCCAGGGACTTTGGCCTTAC showed a binding signal (log2 normalized intensity) of 5.18. Work on AGATTCCAGAGGGAGGGAGGGTGGAGGAAC yielded a binding signal (log2 normalized intensity) of -1.21. Sequence AAGGCTCTCTGTTGACCACCTGCCCCAGGA has a binding signal (log2 normalized intensity) of 1.19. In the case of TCTTGGAGAGAAAAAATCAGAGAGCAAAGG, the binding signal (log2 normalized intensity) is reported as 1.25.

— paper PMC10726135
